# The other results are listed elsewhere or left out. Each Rep nickase domain was tested in vitro on the same pool of single strands for 1 h at 37 °C with 3 µM enzyme; only the middle of the 90-letter strands is printed. Numbers give uncut DNA relative to the enzyme-free pool, as log2; uncut sequences lie near 0, cut ones below; no hit call is given. The scaling is to total reads; uncut strands gain when others are lost, and binding without cutting may add a little.
# Legend:
# Assay in all cases: uncleaved DNA left, log2 of reads against the no-enzyme library (log2 ratio); higher = less cleavage (more negative = more Rep cleavage of the k-mer); sequences stand for … in CTCGTCCG…ACCGGAGA
# [1] = tested on: T1, Rep nickase domain of Muscovy duck circovirus
# T1 sequence (protein, residues 1-111, tag omitted): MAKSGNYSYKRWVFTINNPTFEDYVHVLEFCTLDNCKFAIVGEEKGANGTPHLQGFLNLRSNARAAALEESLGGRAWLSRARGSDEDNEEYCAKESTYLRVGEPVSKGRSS
# Experimental: (§1)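 A pool of 90-nt single-stranded DNAs with seven random bases just before the constant AC of the nick site (name = the seven bases) was cut by 3 µM recombinant His6-SUMO-tagged Rep nickase domain (300 nM DNA, 50 mM HEPES pH 8.0, 50 mM NaCl, 1 mM MnCl2, 1 h, 37 °C, three replicates). Uncut DNA was amplified and sequenced.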
# [2] = tested on: T2, Rep nickase domain of banana bunchy top virus
# T2 sequence (protein, residues 1-94, tag omitted): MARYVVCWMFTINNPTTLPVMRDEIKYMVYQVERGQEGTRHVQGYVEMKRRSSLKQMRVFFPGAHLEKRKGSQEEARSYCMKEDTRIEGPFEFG
# Experimental: as §1
# [3] = tested on: T3, Rep nickase domain of cabbage leaf curl virus
# T3 sequence (protein, residues 1-116, tag omitted): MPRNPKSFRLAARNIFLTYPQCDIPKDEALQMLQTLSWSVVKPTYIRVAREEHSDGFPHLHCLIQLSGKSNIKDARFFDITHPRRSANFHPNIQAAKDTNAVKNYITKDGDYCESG
# Experimental: as §1
# [4] = tested on: T4, Rep nickase domain of chickpea chlorotic dwarf virus
# T4 sequence (protein, residues 1-124, tag omitted): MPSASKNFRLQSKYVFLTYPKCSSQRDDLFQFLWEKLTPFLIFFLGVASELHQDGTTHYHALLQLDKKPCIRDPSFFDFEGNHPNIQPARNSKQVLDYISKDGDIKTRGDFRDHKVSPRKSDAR
# Experimental: as §1
# [5] = tested on: T5, Rep nickase domain of faba bean necrotic yellows virus
# T5 sequence (protein, residues 1-98, tag omitted): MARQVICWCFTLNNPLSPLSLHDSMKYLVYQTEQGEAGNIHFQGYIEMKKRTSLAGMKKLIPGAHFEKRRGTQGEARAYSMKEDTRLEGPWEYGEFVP
# Experimental: as §1
# [6] = tested on: T6, Rep nickase domain of maize striate mosaic virus
# T6 sequence (protein, residues 1-117, tag omitted): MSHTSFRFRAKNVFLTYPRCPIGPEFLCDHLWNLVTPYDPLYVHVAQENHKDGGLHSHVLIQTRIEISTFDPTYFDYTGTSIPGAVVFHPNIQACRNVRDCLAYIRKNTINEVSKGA
# Experimental: as §1
# [7] = tested on: T7, Rep nickase domain of porcine circovirus 2
# T7 sequence (protein, residues 2-116, tag omitted): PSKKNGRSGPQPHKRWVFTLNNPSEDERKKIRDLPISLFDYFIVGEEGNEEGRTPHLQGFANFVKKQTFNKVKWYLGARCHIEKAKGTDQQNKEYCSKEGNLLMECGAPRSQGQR
# Experimental: as §1
# [8] = tested on: T8, Rep nickase domain of tomato yellow leaf curl virus
# T8 sequence (protein, residues 1-136, tag omitted): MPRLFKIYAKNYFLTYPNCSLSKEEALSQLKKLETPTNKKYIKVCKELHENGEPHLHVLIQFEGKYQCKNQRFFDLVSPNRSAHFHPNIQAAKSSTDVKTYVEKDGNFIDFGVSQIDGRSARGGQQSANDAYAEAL
# Experimental: as §1
# [9] = tested on: T9, Rep nickase domain of wheat dwarf virus
# T9 sequence (protein, residues 1-137, tag omitted): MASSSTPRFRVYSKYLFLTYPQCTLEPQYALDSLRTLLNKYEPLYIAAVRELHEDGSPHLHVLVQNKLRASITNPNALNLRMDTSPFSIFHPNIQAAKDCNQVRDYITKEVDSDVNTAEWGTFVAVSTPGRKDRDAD
# Experimental: as §1
Sequence,uncleaved DNA left (log2) [1],uncleaved DNA left (log2) [2],uncleaved DNA left (log2) [3],uncleaved DNA left (log2) [4],uncleaved DNA left (log2) [5],uncleaved DNA left (log2) [6],uncleaved DNA left (log2) [7],uncleaved DNA left (log2) [8],uncleaved DNA left (log2) [9]
AATGTCT,0.00986,-0.0229,-0.406,-2.29,0.123,-0.546,-1.36,0.0512,-0.0987
CTTTGCT,-0.327,-0.000782,-0.771,-1.13,0.0233,-1.17,-0.436,-0.000397,-0.16
GGACCCC,-0.0123,0.176,0.886,1.69,0.124,2.2,0.216,0.133,0.321
CCCCCAT,0.0456,0.0261,0.0452,-0.616,-0.0105,-0.35,-0.117,0.0592,0.0853
ACGATCA,0.113,0.146,0.021,-0.792,0.0911,-0.149,0.0648,0.0032,0.147
TGGCTAA,0.0187,0.0297,0.224,0.409,-0.0745,0.356,-0.111,-0.0306,0.112
TATGGGG,0.107,-0.0229,-0.0423,0.0829,0.147,-0.505,0.134,-0.0857,-0.0225
CTAATCA,0.0309,0.072,0.294,-0.419,-0.0118,-0.107,0.0211,0.171,0.0746
AGGTAAT,-0.256,0.0396,0.164,0.778,-0.0642,1.49,-3.38,-0.000601,0.0316
GTAACAT,0.056,0.111,0.52,1.46,0.00857,2.06,0.184,0.0986,0.168
CCCACCA,-0.142,-0.0716,-0.254,-1.44,-0.0225,-0.636,-0.336,-0.147,-0.132
ATGCTCT,-0.0773,-0.183,-0.33,-1.96,-0.115,-0.803,-0.266,-0.0121,-0.116
CCTACGT,0.0199,-0.0218,0.197,-0.585,0.0882,-0.26,0.00302,-0.0295,-0.131
AACTCCG,0.0155,0.0269,-0.757,-0.219,0.0394,-1.09,0.0613,0.0569,0.00351
ACGTCTA,-0.0192,-0.106,-0.228,-1.09,-0.00624,-0.535,-0.285,-0.171,-0.0473
TATGGTC,0.0387,-0.069,0.349,0.204,0.0206,0.352,0.0519,0.0547,-0.0215
TCGGCAA,0.112,0.0176,0.0171,0.108,-0.024,-0.222,0.0815,-0.00238,0.0265
TATAAGC,0.0793,0.0619,-0.0419,-0.382,0.153,-0.929,0.215,0.143,0.0488
TTTACGG,-0.045,0.0604,0.529,1.59,-0.0135,2.14,0.11,-0.113,0.00353
ACCTAAT,-1.24,0.0897,0.00263,-0.967,0.0865,-0.338,-2.91,0.203,0.0452

Sequence,uncleaved DNA left (log2) [1],uncleaved DNA left (log2) [2],uncleaved DNA left (log2) [3],uncleaved DNA left (log2) [4],uncleaved DNA left (log2) [5],uncleaved DNA left (log2) [6],uncleaved DNA left (log2) [7],uncleaved DNA left (log2) [8],uncleaved DNA left (log2) [9]
AGCCTCA,0.0881,0.0658,0.429,0.416,0.0434,0.819,-0.0935,0.0288,0.108
GTAGATC,0.243,0.187,0.455,1.02,0.153,1.72,0.263,0.162,0.288
AGACTCG,0.129,0.0781,-0.211,-0.115,0.0149,-0.548,0.243,0.00241,0.0898
TGGAAAG,0.0819,-0.0845,-0.424,-0.152,0.0622,-0.857,0.164,0.1,-0.0884
AATGTGA,0.0194,-0.0724,-0.453,-0.639,0.0108,-0.938,0.0319,0.0318,0.0192
AGCGGAC,0.00715,0.149,0.185,0.813,-0.127,1.18,0.0552,-0.0174,-0.115
AAGCGCT,-0.0161,-0.108,-0.208,-0.484,-0.236,-0.134,-2.06,-0.212,-0.0628
CACGATC,0.138,0.0241,0.0953,-0.28,0.245,-0.458,0.0912,0.0734,-0.034
TGCGCAT,0.0423,0.022,-0.0254,0.101,0.0249,-0.16,0.025,-0.0142,0.166
CAATCGG,-0.00862,-0.0397,0.372,1.15,-0.00323,1.09,0.119,-0.0642,-0.0487
CTTCGCA,0.0758,0.0664,-0.212,-0.667,0.0658,-0.844,0.0249,0.0207,0.0165
ATTCAAA,0.088,0.286,0.272,0.182,0.0934,-0.34,0.171,0.0895,0.18
ACACTTT,0.0488,0.0397,-0.469,-2.76,-0.0493,-0.754,-0.369,-0.131,-0.0681
GCTTTGA,0.0429,0.0161,0.045,0.443,-0.137,-0.191,0.131,-0.0336,0.0193
TTGAGGG,0.157,0.0155,0.186,0.37,0.0357,-0.172,0.205,0.0189,0.067
AAGGAGC,0.0297,0.0952,0.181,1.02,-0.0255,0.656,0.229,-0.0866,-0.0527
TCACTTT,-0.0381,-0.201,-0.284,-2.91,-0.135,-0.759,-0.389,-0.0457,-0.318
GGTCGCT,-0.00495,0.0249,0.374,0.671,0.038,0.888,-0.0342,-0.0103,0.0766
GAACATA,-0.0867,0.0436,0.624,0.772,-0.0263,1.91,0.115,0.0388,0.109
GAAGGTA,0.0931,0.0574,0.345,0.719,-0.0252,1.39,0.0731,0.0351,0.0472

Sequence,uncleaved DNA left (log2) [1],uncleaved DNA left (log2) [2],uncleaved DNA left (log2) [3],uncleaved DNA left (log2) [4],uncleaved DNA left (log2) [5],uncleaved DNA left (log2) [6],uncleaved DNA left (log2) [7],uncleaved DNA left (log2) [8],uncleaved DNA left (log2) [9]
CAAGACC,-0.0682,-0.0544,-0.0557,0.00329,-0.0233,-0.493,-0.0164,-0.123,-0.129
TAATAGC,0.0764,0.0732,-3.34,-2.88,0.1,-2.4,0.178,0.143,-0.815
CCGGTCA,-0.00768,-0.0471,0.177,-0.0114,-0.0547,0.499,-0.109,-0.0041,-0.0702
GGCCCCA,-0.0739,0.1,0.468,0.969,-0.0852,1.66,-0.00643,0.0656,-0.0231
CGCCGCT,0.0957,0.00859,-0.19,-0.625,-0.12,-0.433,0.0422,0.0192,0.0487
CCTTAGT,-1.85,0.0755,-0.121,-0.852,0.0486,-1.07,-3.35,0.0532,0.0763
TGCAAGT,-0.0466,0.0325,-0.0682,-0.252,0.0283,-0.732,0.0697,0.0871,0.0316
CGTTCAT,-0.132,0.013,0.0338,-0.0652,-0.0775,0.00353,-0.279,0.0638,0.0412
CAGTCTA,-0.127,-0.512,-0.362,-2.38,-0.566,-0.577,-2.87,-0.0899,-0.335
TGAAATA,-0.000525,0.0715,-0.0186,-1.06,0.0304,0.00114,0.0428,0.0517,0.179
CTCGGAA,-0.0295,0.0366,0.33,0.916,-0.0393,0.977,-0.0496,0.0318,-0.041
GTCGTTT,0.101,0.0931,0.428,0.64,0.0917,1.53,0.0274,0.0432,0.0194
CAGAACG,-0.0663,0.0165,-0.859,-0.409,-0.116,-1.26,0.0122,-0.0957,-0.122
ACTTATA,-0.206,-0.0813,-0.296,-1.65,-0.0183,-0.759,-0.117,-0.122,0.00636
CGCTGTC,-0.131,-0.0677,0.299,1.29,-0.123,1.31,-0.0823,-0.165,-0.0756
GCCGGTT,0.205,0.159,0.375,0.31,0.158,0.64,0.243,0.249,0.0517
ACGATGC,0.135,0.123,-0.479,-0.373,0.0851,-0.989,0.19,-0.0113,-0.0726
TAAATAT,-0.0437,-0.0893,-4.02,-3.27,-0.127,-2.52,-0.988,-0.0281,-3.6
ATTCAAT,-0.437,-0.376,-0.0154,-0.342,0.00745,-0.254,-2.92,0.0625,0.11
ATTATAA,0.00824,-0.0467,-0.152,-0.19,0.0162,-0.62,-0.0827,0.0934,0.0222

# Source: the supplement of paper PMC7826260
